The text below walks through data of PubChem BioAssay AID463173 (ICCB-Longwood Screening Facility, Harvard Medical School, 2010).

In all, about 52,000 compounds went through this assay and about 1,700 (3.3%) were called active. No stated cut-off is given here; in the data, active means survival mostly below about 52% (no sharp cut-off); inactive means mostly above about 56%. The list shows a part of the results.

This assay concerns Wild type. Kind of assay: S. aureus survival, RN4220 and DeltatarO strains – OD600, teichoic acid synthesis inhibitors, primary screen (AID 463173). The conditions noted are these: S. aureus RN4220 wild type/DeltatarO growth, OD600, 18 h, active compounds read low; concentration not given here unless noted.
Take `Cc1ccc(OCC(=O)N2CCN(CCc3ccncc3)CC2)cc1C`: the survival was inactive: 89%.
Take `CC1CCC(NCCc2ccc3c(c2)OCO3)CC1` (centres undefined): the survival was inactive: 103%.
Regarding `CCOc1cccc(C(O)CNC)c1` (centres undefined), the survival was inactive: 99%.
On to `Cc1cc(-n2c(/C=C/c3cccs3)nc3ccccc3c2=O)ccc1Br`, for which the survival is inactive: 126%.
`Cc1cc(-n2c(/C=C/c3ccc(Br)s3)nc3ccccc3c2=O)ccc1Br`: the survival was inactive: 66%.
As for `COc1ccc(/C=C/c2nc3ccccc3c(=O)n2-c2ccc(C)cc2)cc1O`, the survival is inactive: 94%.
In the case of `Nc1ccc(NC2=NCCCS2)cc1`, the survival is inactive: 93%.
To `O=C(Nc1ccon1)c1cccn(Cc2ccccc2)c1=O` belongs inactive: 71%.
Take `Cc1cccc(-n2c(/C=C/c3cn(C)c4ccccc34)nc3ccccc3c2=O)c1`: the survival is inactive: 12%.
As for `Cc1cc(NC(=O)c2cccn(Cc3cccc(Cl)c3)c2=O)no1`, the survival was inactive: 72%.
As to `Cn1c(=O)c2ncnnc2n(C)c1=O`, the survival was inactive: 109%.
Take `Cc1ccc(-c2nc(CN3C(=O)CN=C(c4ccccc4)c4cc(Cl)ccc43)c(C)o2)cc1`: the survival is inactive: 78%.
With `O=S1(=O)N(Cc2ccccc2)CCCN1Cc1cccc(Cl)c1`, the survival is inactive: 78%.
As to `Cc1ccc(Cn2cccc(C(=O)Nc3cc([N+](=O)[O-])ccc3C)c2=O)cc1`, the survival is inactive: 105%.
Consider `O=C(COc1cccc(Cl)c1)N1CCN(CCc2ccncc2)CC1`, for which the survival was inactive: 79%.
Consider `O=C(COc1ccccc1Cl)N1CCN(CCc2ccncc2)CC1`, for which the survival was inactive: 100%.
Consider `O=C(CCc1nc(C2=CCN(Cc3cccc(Cl)c3)CC2)no1)Nc1ccccc1F`, for which the survival is inactive: 81%.
For the molecule `O=c1c2ccccc2nc(/C=C\c2ccc(F)cc2)n1-c1ccccc1F`, the survival is inactive: 71%.
For `COc1ccc(OCC(=O)N2CCN(Cc3cc(=O)n4nc(-c5ccccc5C)sc4n3)CC2)cc1`, the survival is inactive: 152%.
`CC(=O)NS(=O)(=O)c1ccc(NC(=O)c2cccn(Cc3ccc(Cl)cc3)c2=O)cc1`: the survival is inactive: 71%.
As to `Cc1cccc(NC(=O)Cn2cc(C(=O)c3ccccc3)c3ccccc32)c1`, the survival is inactive: 91%.
On to `CN1CCc2cc3c(c4c2C1Cc1ccccc1-4)OCO3` (centres undefined), for which the survival was inactive: 74%.
As for `Cc1c(C(c2ccc(F)cc2)c2c(O)c3ccccc3oc2=O)c(=O)n(-c2ccccc2)n1C` (centres undefined), the survival is inactive: 114%.
As to `O=C(COc1ccc(Cl)cc1)Nc1ccc(Cl)cc1C(=O)c1ccccc1`, the survival is inactive: 68%.
As for `Cc1nnc(NC(=O)c2cccn(Cc3ccccc3F)c2=O)s1`, the survival was inactive: 128%.
For the molecule `O=C1CC(c2c(F)cccc2Cl)c2c(c3ccccc3oc2=O)O1` (centres undefined), the survival was inactive: 78%.
To `CN=Cc1c(O)[nH]c(=O)[nH]c1=O` belongs inactive: 98%.
To `CCC12CN3CC(CC)(CN(C1)C3c1ccccn1)C2=O` (centres undefined) belongs inactive: 85%; to `CC(=O)N1CC(=O)Nc2ccc(F)cc2C1c1ccccc1` (centres undefined), inactive: 82%; to `Cc1cc(C)cc(-n2c(=O)[nH]c3ccccc3c2=O)c1`, inactive: 72%.
To `CCCSc1nc2ccccc2c(=O)n1-c1ccccc1OC` belongs active: -1%.
As for `CC1=NN(c2ccccc2)C(=O)/C1=C\c1c(O)[nH]c(=O)[nH]c1=O`, the survival was inactive: 113%.
On to `O=C(Nc1ccon1)c1cccn(Cc2cccc(Cl)c2)c1=O`, for which the survival was inactive: 66%.
As for `CCCc1nc2ccccc2c(=O)n1-c1ccccc1`, the survival is inactive: 127%.
`COCc1c(CN)cnc(C)c1N`: the survival was inactive: 102%.
In the case of `O=c1cccc2n1CC1CC2CN(c2nc(N3CCCCC3)nc(N3CCCCC3)n2)C1` (centres undefined), the survival is inactive: 96%.
Take `Cc1oc(-c2ccc(Cl)cc2)nc1CN1C(=O)CN=C(c2ccccc2)c2ccccc21`: the survival was inactive: 80%.
To `O=c1[nH]c2ccccc2c(=O)n1-c1ccc(Cl)c(Cl)c1` belongs inactive: 91%.
`Cc1cccc(NC(=O)Cn2cc(C(=O)c3ccccc3)c3ccccc32)c1C`: the survival is inactive: 71%.
In the case of `Cc1ccc(NC(=O)N(Cc2ccc3c(c2)OCO3)C2CCN(Cc3ccccc3)CC2)cc1F`, the survival was inactive: 76%.
On to `CN(C)C(=O)Oc1cccc2cccnc12`, for which the survival was inactive: 91%.
To `COC(=O)CC1=C(C(=O)OC)C2(C(=O)Nc3ccc(F)cc32)C(C#N)=C(N)O1` (centres undefined) belongs inactive: 72%; to `Cc1cc(C)cc(-n2c(/C=C/c3cccc(F)c3)nc3ccccc3c2=O)c1`, inactive: 68%.
As to `COc1ccc(NC(=O)CN2C(=O)C(C)N=C(c3ccccc3F)c3cc(Cl)ccc32)c(OC)c1` (centres undefined), the survival is inactive: 72%.
Turning to `Cc1nnc(NC(=O)c2cccn(Cc3ccc(Cl)cc3)c2=O)s1`, the survival was inactive: 65%.
Take `O=S1(=O)CC2(N3CCOCC3)CCCCC21` (centres undefined): the survival was inactive: 112%.
For the molecule `CC(=O)N(C1=NCCCS1)c1ccccc1F`, the survival was inactive: 107%.
For the molecule `COc1ccc(OC)c(NC(=O)Cn2cc(C(=O)c3ccccc3F)c3ccccc32)c1`, the survival is inactive: 69%.
As to `Cc1ccc(-n2c(/C=C/c3ccc(Br)s3)nc3ccccc3c2=O)cc1C`, the survival is inactive: 138%.
